Laboratory results published in the supplement of paper PMC3334620.
Whole data set: some 33,000 sequences, median “E-score (-0.5 to 0.5)” near -0.054, cut for the highest 2% near 0.35. The list shows a part of the results.

molecular target: T1, Stb5 (UniProt P38699); test: PBM E-score (8-mer binding enrichment) (E-score (-0.5 to 0.5)); higher = stronger / more preferred TF binding; most listed sequences are background and not binding sites; settings: protein concentration: 200 nM; construct: GST-full length
T1 sequence: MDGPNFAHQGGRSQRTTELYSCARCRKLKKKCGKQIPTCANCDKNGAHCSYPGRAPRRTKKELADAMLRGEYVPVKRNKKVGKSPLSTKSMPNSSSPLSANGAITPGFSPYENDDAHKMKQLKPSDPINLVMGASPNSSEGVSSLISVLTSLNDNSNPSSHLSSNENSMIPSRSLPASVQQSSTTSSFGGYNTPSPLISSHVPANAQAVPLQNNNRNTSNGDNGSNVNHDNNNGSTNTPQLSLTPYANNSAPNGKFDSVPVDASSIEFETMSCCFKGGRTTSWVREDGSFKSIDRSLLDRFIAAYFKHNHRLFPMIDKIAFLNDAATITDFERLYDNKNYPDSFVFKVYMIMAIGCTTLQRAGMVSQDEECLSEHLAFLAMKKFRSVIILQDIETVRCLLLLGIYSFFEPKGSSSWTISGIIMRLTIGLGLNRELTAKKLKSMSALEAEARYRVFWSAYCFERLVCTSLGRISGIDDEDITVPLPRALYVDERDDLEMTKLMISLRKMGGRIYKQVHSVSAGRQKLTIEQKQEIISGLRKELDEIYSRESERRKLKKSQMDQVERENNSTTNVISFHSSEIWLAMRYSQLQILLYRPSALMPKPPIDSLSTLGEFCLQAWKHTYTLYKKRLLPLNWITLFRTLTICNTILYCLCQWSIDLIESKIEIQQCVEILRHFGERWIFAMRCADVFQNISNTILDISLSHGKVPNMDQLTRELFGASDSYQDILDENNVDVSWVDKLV
Description: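 Universal 'all 10-mer' protein binding microarrays (Agilent AMADID 015681) probed with GST-tagged S. cerevisiae TFs (full-length or DBD) made by in vitro transcription/translation (PURExpress), about 100-200 nM. Bound TF was detected with fluorescent anti-GST. Each ungapped 8-mer (which stands for itself and its reverse complement) is scored by the PBM enrichment score (E-score), a modified Wilcoxon-Mann-Whitney statistic from -0.5 to +0.5, computed with the Universal PBM Analysis Suite. Scale: above 0.35 generally sequence-specific binding.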

| Sequence | PBM E-score |
| --- | --- |
| ACGACTGG | -0.152 |
| CGGGGCAA | 0.293 |
| TCTCTCAA | 0.0742 |
| AGACAACA | -0.0854 |
| GGAGCGTA | 0.0296 |
| ACAAATAT | -0.0227 |
| ATTAGTCC | 0.248 |
| AAGACACC | 0.321 |
| AAACTAAC | -0.0336 |
| ACTCGTTA | -0.226 |
| CTGGTAAG | -0.163 |
| ACATATTA | 0.0329 |
| AGGTTTGA | -0.0736 |
| AAGAGGAA | -0.24 |
| ATGTGTGG | -0.288 |
| GATGCGCA | 0.0286 |
| GGCGGTAC | 0.361 |
| TCAGCGCA | -0.0475 |
| GAGCATAC | -0.182 |
| ACAACCAA | -0.26 |
| AAAGCTTA | -0.184 |
| AGTCCCAC | -0.0178 |
| CGAATTCC | -0.0326 |
| ATGCAATA | -0.178 |
| TCACTTCA | -0.0498 |

| Sequence | PBM E-score |
| --- | --- |
| CGAAATAA | 0.0814 |
| GCAACAAC | -0.0708 |
| AGCACCGG | 0.421 |
| GGTGTAGA | 0.0547 |
| GCCTGGCA | -0.204 |
| AATAAAAT | -0.0879 |
| ATCTCCAC | 0.0569 |
| AAGCGTTC | -0.145 |
| GATTCCCA | -0.0952 |
| AGACATCT | -0.249 |
| AGCATCCT | 0.0941 |
| CACACTAA | -0.317 |
| AGGCTGAA | -0.167 |
| GTGAGCGA | -0.182 |
| AAGGGTGA | -0.252 |
| CAGGAGCG | 0.038 |
| CCGTCTCC | 0.22 |
| GACCGTGC | 0.122 |
| ACTCGTAT | -0.22 |
| AGAGACCC | -0.0278 |
| CAATGGAC | -0.088 |
| CTCGGGCC | 0.0979 |
| ACTTAACT | -0.00566 |
| CTGGGCTC | -0.335 |
| GAGCGAAA | 0.029 |

| Sequence | PBM E-score |
| --- | --- |
| CGAGTCCA | -0.152 |
| CCCAGACC | -0.0261 |
| ATTTAGCG | 0.179 |
| ACCACAAC | -0.0638 |
| GACTGCTA | -0.183 |
| CCGCCCAG | 0.311 |
| ACTGCATA | -0.187 |
| AGTGCTCC | -0.0929 |
| AACCGATT | 0.0851 |
| CGAACCAC | 0.147 |
| GAGTAATC | -0.0998 |
| GCTGGACC | -0.0827 |
| AAAATGTT | -0.267 |
| GTAAATCA | 0.0689 |
| ATGTATCA | -0.245 |
| AGAATCAG | 0.083 |
| GATAGCAC | 0.0288 |
| CAGGCATA | -0.0979 |
| GACTGCTC | -0.238 |
| GAAGCCGC | 0.202 |
| CGGAACAG | 0.035 |
| TCCCACCA | -0.119 |
| AAGTACGA | 0.0896 |
| GGGACGGA | 0.255 |
| ACTAGGTG | -0.129 |

| Sequence | PBM E-score |
| --- | --- |
| AGCGCCCA | -0.145 |
| GAAGTGAA | -0.157 |
| GTCCGCTA | 0.374 |
| GCGCCGCA | 0.268 |
| ATTAGGTA | -0.186 |
| GCATAGGA | -0.0752 |
| ATCTTACC | 0.0611 |
| ATCTCCCA | -0.158 |
| GCGCATAA | -0.103 |
| CAGAGTAC | -0.0917 |
| ACGTCTTA | -0.398 |
| CACGCATA | -0.191 |
| GCTAAAAA | -0.104 |
| AGAATCTG | -0.0539 |
| CCGCGGCC | 0.317 |
| GACGGGCC | 0.31 |
| TAACTAAA | 0.029 |
| CGCTGCCG | 0.0613 |
| AGCGTTTA | -0.0439 |
| CAACGCTG | -0.0321 |
| TGCCTAAA | -0.205 |
| GGGGCAAA | 0.231 |
| GCCGAAGA | -0.016 |
| GCCTAGCA | -0.233 |
| ACTGCAAC | -0.284 |

| Sequence | PBM E-score |
| --- | --- |
| GACATGTA | 0.127 |
| AAATGCCT | -0.111 |
| CATCTAAA | 0.00115 |
| AATATCCT | -0.00071 |
| GTCCATAA | -0.268 |
| ATCCGGTC | 0.147 |
| CCGGTCAG | 0.179 |
| GCTAGACC | -0.0659 |
| ATGCAGGA | -0.322 |
| CATAGAAA | -0.0877 |
| GTTACGTA | -0.106 |
| CAGGCATG | -0.111 |
| AACGATGT | -0.186 |
| AGCGATCC | -0.0329 |
| GCTCTGGA | -0.00109 |
| AGCTCCCT | -0.295 |
| CAGCGACG | 0.0833 |
| GCGGGATA | 0.237 |
| AGGAGACG | -0.0596 |
| CGCAAGAC | -0.145 |
| GCCATATA | 0.0897 |
| ATACATAA | -0.0939 |
| CCACACAG | -0.154 |
| GGTAAATA | 0.219 |
| CTTAAGTA | 0.0202 |

| Sequence | PBM E-score |
| --- | --- |
| CCAATTCA | -0.261 |
| AGTTACCA | -0.0163 |
| CATGTGCA | -0.0466 |
| AGCATGGC | -0.178 |
| ACGGAGGG | 0.0922 |
| CCTGTACA | -0.0473 |
| TCCTCCGA | 0.157 |
| ATATCAGA | 0.0971 |
| GTAGATAA | -0.0465 |
| TCGCCGAA | 0.178 |
| CGTGTTTC | -0.0337 |
| TAAGTCCA | 0.207 |
| ACACAAGT | -0.0563 |
| GACGCCCC | 0.0392 |
| CCAGATGC | -0.143 |
| ATTCTCTA | -0.189 |
| CCAAAGAC | -0.0393 |
| ATCGCCAG | -0.0866 |
| ATAACCAG | -0.171 |
| AATGAGAT | -0.211 |
| AAGCGTAG | -0.187 |
| AGAGAACT | 0.0463 |
| ACAGCGTG | -0.0948 |
| ACTTGGTG | -0.217 |
| CCGGTGTC | 0.408 |

| Sequence | PBM E-score |
| --- | --- |
| GACTTCAA | -0.101 |
| CAAGTCGA | -0.282 |
| AGCCCGAA | 0.247 |
| CGCACGAA | -0.0424 |
| AAGAGCAG | -0.119 |
| GATCGTCA | -0.133 |
| GGTTTATA | 0.255 |
| ACTCGGAT | 0.0317 |
| TCGCTCCA | -0.126 |
| GCACAACA | 0.00017 |
| AAGCTATG | -0.15 |
| GGTCGCTA | 0.143 |
| CCCCGCGG | 0.349 |
| AGGACGCA | -0.15 |
| ACCACTGC | -0.242 |
| ATCTACGA | -0.116 |
| AAGTTATG | -0.145 |
| ACGTGAGT | -0.224 |
| GAAGTATC | -0.0587 |
| ACTGGGAA | -0.168 |
| CAACCAGG | -0.0851 |
| CCGGTAGA | 0.18 |
